The supplement of paper PMC12632987
Over roughly 2,300 sequences, “median log2 fold change of GCK-ALFA target abundance (FLAG IP / Myc IP barcode read proportion)” has its median near 0.095; the lowest 2% begin near -0.47. The list shows a part of the results.

B1: LC3A_28_952 (protein)
chain: MSLEERLKKALEEAKKAAEAGEPAVITITVPGNATEEDIKKVIETLEEIAEILKDVEGAAIIIDVEAGVKEEHINKLADKAEEIEEKYPNVTVIIALDED
B2: LC3A_3_1402 (protein)
chain: FEEIKKEAEAFLKAAGASPEVIAAANEVLEELEKRGYLEAAKTFVEELKKLKDASDEILLDFLNEVLDYLKSNDSSEEEVVKKIKELATIAKNEHEIEEL
B3: LC3A_28_1131 (protein)
chain: SEADEIIAKAKEQVEAGIAAGEDIYVDLTIKGKMTKEETERVAEAIREEAKRGAAKGKVYIVITFDKNENAEQADLMADKADEIEAEYPNVSVIIALPEE
B4: LC3A_147_462 (protein)
chain: KIYEVTLDVLVKNLTEEIKKFFEELAEEIKKEVPNAKVELEFIQDPENPNETLVRLTVTVKTKEDAEKILDIVVEKLDEFEKKFGDQIVASMISVEEIEE
B5: LC3A_59_2020 (protein)
chain: SEEIEEYREKMRANIDDIDAFTATVREALEKFKDDPEKVKEILKAAMDVVVEELGADKEEAEKVLEEMLKILEEEKDKEKAIEKIVDLIRDLLLLTPIEE
B6: LC3A_28_1014 (protein)
chain: SHMEERVAALIAEIEAALAKGEYVVATLTITPEDSLEEVKAAMERVGKAALEAAKKGIVDVVVDLEKGVSQEKLDAVMEAADELEKKAPKLNVVIALEEE
B7: LC3A_free_39_2262 (protein)
chain: SEAERAAALAALRALAAQTSPEVRAAVLRLGDLLADDPELLRRLRDLLEAAIAKGPEVVAIFGAEAAEAVARIEAGEPRERAVEELLKLAEAAIEIEEID
B8: LC3A_55_2010 (protein)
chain: MKVNIVIDIDEKTGEITELEVYVDGAKEKILAKLKELGKELAAEIFEKAVAAPLDEKRMAELIKKYGAEAVKEAINTLIEVIKSTEGVDLNVIEEIDDNS
B9: LC3A_102_147 (protein)
chain: SPVEEIEKLKKEALEEGKKIAEKLAKEDPEKAKEILKLLEEGINAIAESAISEVEHGFEDLVALDKAEEALETLKKLGAEEGVALLEEYEEKAKEIVEKA
B10: LC3A_147_488 (protein)
chain: AEVDVDVIVKSEEAAEELKKKVEEIVKEMKEKGVNVELEIEVEELEPGVYYVRIKIKVKEKTQEEAKKAANEIVKKIDEIIEELKDEVLAALISIEETEK
B11: LC3A_3_1583 (protein)
chain: MEERVAAARERLRAAGMPEEVVDRAVRVIEALLAKGAEEAAELLLEGLLELHKVAPELLPETLEEVEKLVADESLTPEELLEKVREILTTALNEAEIIEL
B12: LC3A_3_1670 (protein)
chain: MEEIKKLLEKMEKAKTAKEKLEYLRKAAEKLLEYYGKEEEKKEVTENLEKLFSQDDEFLEEAVKILKEELEKVIENGPEEIEKLVETSKTLANESEIEEL
B13: LC3A_28_723 (protein)
chain: GELEESLEKAIKEAEEAAKAGKEVVITIKVPGNATEEDIEKVIEALYKIAEITKDLPSTSIIIDVDGGVKQEHIDKLADAAEEIEEKYPNVTVIIALDEE
B14: LC3A_3_1790 (protein)
chain: MEEELEELLERLREAGHSEETIEAVRETGELLIERGYEEALRTFIEEMRELLDAPDELLLELAEDVLELLLTEDISEEELRERIREEARLARLESEIIEL
B15: LC3A_132_315 (protein)
chain: MEEEYEKLRKEALKLLEEAKKNVNNLEKVKKLFEELRKILEEAEKKITPEQVAELFDEVADRLDEIARLAEAAGQEEVADLASGLAVEAAALSIRAEEKI
B16: LC3A_23_620 (protein)
chain: MIKIEVEVDLLVPAAEADAKLATMRATAEAAIEKLKDKIEKSELEFEREELPDGTVFLRARITLYTNVSMEEAKEIANEIVSAFSEALPDAVISYEVEEL
B17: LC3A_132_246 (protein)
chain: SEEEYKKALAELKEIIDKIVELLKEGKDPLPAIVELEEKAREIAEKLSLEETEKLVEETIEYAEKRFEEELDPNDEEARRTLDIIEMLLEGVLIEKELRS
B18: LC3A_45_1920 (protein)
chain: MYRATVDLLVPRELLEKVLKTIRETAAELEAESGGALTFDLEGLEETAKKTINEEEVYLRLEIYGEDKDLVLDAADRIVDAIEEATGKNIAAMISFEELP
B19: LC3A_3_1411 (protein)
chain: LEERLAATEALLREAGHSEETLAAFRRLVELLLERGAEEEAERVLELVAEAKDISSEDLLAVLEEVIRALEEEGASPEEAVERLEELLRIARAEQEIEEL

Each binder was assayed against MAP1LC3A, Q9H492 (assay: median log2 fold change of GCK-ALFA target abundance (FLAG IP / Myc IP barcode read proportion) (log2 ratio); each designed protein is fused to an ALFA-tag nanobody in HEK293 cells to bring the named protein to FLAG-tagged glucokinase (GCK); Myc marks an untargeted standard; higher = target protein stabilised (more abundant)). Settings: target protein: 3xFLAG-MCP-GCK-ALFA reporter; HEK293 landing pad (RPLP).
In short: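 HEK293 landing-pad cells received a recombined binder library fused to the ALFA nanobody and were induced with 2 μg mL^−1 doxycycline, then transfected with a plasmid encoding a FLAG-tagged target and a Myc-tagged standard. Lysates were collected after 48 h for anti-FLAG and anti-Myc immunoprecipitation, and the circular RNA barcodes were reverse transcribed, amplified and sequenced. Target abundance for each binder is the median log2 ratio of FLAG to Myc barcode read proportions. Barcodes had to reach a proportion of at least 10^−7 in both replicates, each binder needed at least 3 barcodes per replicate, a pseudocount of 10^−6 was applied, and the two replicates were pooled.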
B1 was tested, and the “median log2 fold change” value was 0.0656. In the case of B2, the “median log2 fold change” value is reported as 0.318. B3 was tested, and the “median log2 fold change” value was -0.224. With B4 the “median log2 fold change” value was 0.0765. For B5, the “median log2 fold change” value was -0.571. With B6 the “median log2 fold change” value was -0.297. For B7, the “median log2 fold change” value was 0.24. For B8, the “median log2 fold change” value was 0.434. With B9 the “median log2 fold change” value was 0.259. B10 was tested, and the “median log2 fold change” value was 0.00167. For B11, the “median log2 fold change” value was 0.128. B12 was tested, and the “median log2 fold change” value was 0.204. B13 was tested, and the “median log2 fold change” value was 0.106. For B14, the “median log2 fold change” value was -0.254. With B15 the “median log2 fold change” value was 0.422. B16 was tested, and the “median log2 fold change” value was -0.338. For B17, the “median log2 fold change” value was -0.415. B18 was tested, and the “median log2 fold change” value was -0.00751. For B19, the “median log2 fold change” value was 0.212.
